Measurements from the supplement of paper PMC4604168 (melanoma cell lines).
This is one part of the list. Single values are uncertain, as repeats are few or missing.

System: G361
Test: cell count relative to DMSO control; melanoma cells; higher = more viable cells
Settings: library dose: standard library concentration; 72 h
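Further: cells treated in 1,536-well plates, then fixed and DAPI-stained, with nuclei counted from automated high-throughput microscope images.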

SMILES	cell count
COc1cc2c(Oc3ccc4[nH]c(C)cc4c3F)ncnc2cc1OCCCN1CCCC1 [cediranib] + N#Cc1c(O)c2c(-c3ccc(-c4ccccc4O)cc3)csc2[nH]c1=O [A769662] (first compound 2 µM, partner dose 10 µM)	85.7%
CC(C)(C)c1cnc(CSc2cnc(NC(=O)C3CCNCC3)s2)o1 + CN(C)S(=O)(=O)c1ccc2c(c1)/C(=C/c1cc3c([nH]1)CCCC3)C(=O)N2 [SU6656] (first compound 0.05 µM, partner dose 2 µM)	61%
COc1cc2c(Oc3ccc4[nH]c(C)cc4c3F)ncnc2cc1OCCCN1CCCC1 [cediranib] + COc1ccc(COc2ccc(Cc3cnc(N)nc3N)cc2OC)cc1 [GW2580] (first compound 2 µM, partner dose 5 µM)	92.5%
CCCCCCCCc1ccc(CCC(N)(CO)CO)cc1 [fingolimod] + OCCn1cc(-c2cnc3nnn(Cc4ccc5ncccc5c4)c3n2)cn1 [PF04217903] (first compound 10 µM, partner dose 5 µM)	15.1%
NC(=O)c1ccc(N(C(N)=O)c2c(F)cccc2F)nc1-c1ccc(F)cc1F + Clc1ccc(Nc2nnc(Cc3ccncc3)c3ccccc23)cc1 [vatalanib] (first compound 2 µM, partner dose 10 µM)	70.9%
CCc1ccc(CCOc2ccc(CC3SC(=O)NC3=O)cc2)nc1 (centres undefined) [pioglitazone] + CC(C)CCN1c2nc(Nc3cc(F)c(O)c(F)c3)ncc2N(C)C(=O)C1C [BID1870] (first compound 10 µM, partner dose 1 µM)	67.4%
Cc1ccc(NC(=O)c2cccc(N(C)C)c2)cc1NC(=O)c1ccc(O)cc1 + CN(C)S(=O)(=O)c1ccc2c(c1)/C(=C/c1cc3c([nH]1)CCCC3)C(=O)N2 [SU6656] (first compound 10 µM, partner dose 2 µM)	62.6%
NC(=O)c1ccc(N(C(N)=O)c2c(F)cccc2F)nc1-c1ccc(F)cc1F + Cc1cc(N2CCOCC2)cc2[nH]c(-c3c(NC[C@@H](O)c4cccc(Cl)c4)cc[nH]c3=O)nc12 [BMS536924] (first compound 2 µM, partner dose 1 µM)	66.4%
Cc1ccc(NC(=O)c2cccc(N(C)C)c2)cc1NC(=O)c1ccc(O)cc1 + CCCCCCCCCCCC1=C(O)C(=O)C=C(O)C1=O [Embelin] (first compound 10 µM, partner dose 6 µM)	79.3%
CN(NC(=O)CC(=O)NN(C)C(=S)c1ccccc1)C(=S)c1ccccc1 + Cn1cc(/C=C2\C(=O)Nc3cccnc32)c2ccccc21 [GW441756] (first compound 0.03 µM, partner dose 2 µM)	47.5%
CCCCCCCCc1ccc(CCC(N)(CO)CO)cc1 [fingolimod] + O=C(O)[C@@H]1[O][Sb](=[O])([O][Sb]2(=[O])[O][C@H]([C@H](O)CO)[C@H](O)[C@H](C(=O)O)[O]2)[O][C@H]([C@H](O)CO)[C@@H]1O [stibogluconate] (first compound 10 µM, partner dose 10 µM)	66.9%
Cc1ccc(NC(=O)c2cccc(N(C)C)c2)cc1NC(=O)c1ccc(O)cc1 + COc1cc(N2CCC(N3CCN(C)CC3)CC2)ccc1Nc1ncc(Cl)c(Nc2ccccc2S(=O)(=O)C(C)C)n1 [NVP-TAE684] (first compound 10 µM, partner dose 0.4 µM)	96.1%
COc1cc2c(Oc3ccc4[nH]c(C)cc4c3F)ncnc2cc1OCCCN1CCCC1 [cediranib] + COc1cc(N2CCC(N3CCN(C)CC3)CC2)ccc1Nc1ncc(Cl)c(Nc2ccccc2S(=O)(=O)C(C)C)n1 [NVP-TAE684] (first compound 2 µM, partner dose 0.4 µM)	79.8%
COc1cc2c(Oc3ccc4[nH]c(C)cc4c3F)ncnc2cc1OCCCN1CCCC1 [cediranib] + Cn1cc(/C=C2\C(=O)Nc3cccnc32)c2ccccc21 [GW441756] (first compound 2 µM, partner dose 2 µM)	86.8%
COc1cc2c(Oc3ccc4[nH]c(C)cc4c3F)ncnc2cc1OCCCN1CCCC1 [cediranib] + Oc1cc(-c2nc(-c3ccccc3)[nH]c2-c2ccncc2)ccc1Cl [L779450] (first compound 2 µM, partner dose 1 µM)	47.9%
NC(=O)c1ccc(N(C(N)=O)c2c(F)cccc2F)nc1-c1ccc(F)cc1F + Cc1nc(Nc2ncc(C(=O)Nc3c(C)cccc3Cl)s2)cc(N2CCN(CCO)CC2)n1 [dasatanib] (first compound 2 µM, partner dose 0.02 µM)	72.5%
CC(C)(C)c1cnc(CSc2cnc(NC(=O)C3CCNCC3)s2)o1 + c1cc(-c2cnn3cc(-c4ccc(OCCN5CCCCC5)cc4)cnc23)ccn1 [Dorsomorphin] (first compound 0.05 µM, partner dose 2 µM)	22.6%

SMILES	cell count
CC(C)(C)c1cnc(CSc2cnc(NC(=O)C3CCNCC3)s2)o1 + C[C@@H]1CCN(C(=O)CC#N)C[C@@H]1N(C)c1ncnc2[nH]ccc12 [CP690550] (first compound 0.05 µM, partner dose 5 µM)	81.4%
CC(C)(C)c1cnc(CSc2cnc(NC(=O)C3CCNCC3)s2)o1 + Oc1nc(-c2ccc(C(F)(F)F)cc2)nc2c1CSCC2 [XAV939] (first compound 0.05 µM, partner dose 10 µM)	84.4%
NC(=O)c1ccc(N(C(N)=O)c2c(F)cccc2F)nc1-c1ccc(F)cc1F + C=C(c1ccc(C(=O)O)cc1)c1cc2c(cc1C)C(C)(C)CCC2(C)C [Bexarotene] (first compound 2 µM, partner dose 10 µM)	96.1%
CCc1ccc(CCOc2ccc(CC3SC(=O)NC3=O)cc2)nc1 (centres undefined) [pioglitazone] + N#Cc1c(O)c2c(-c3ccc(-c4ccccc4O)cc3)csc2[nH]c1=O [A769662] (first compound 10 µM, partner dose 10 µM)	94.7%
CC(C)(C)c1cnc(CSc2cnc(NC(=O)C3CCNCC3)s2)o1 + Cc1cc([N+](=O)[O-])ccc1NS(=O)(=O)c1cc(Cl)ccc1Cl [FH535] (first compound 0.05 µM, partner dose 5 µM)	51.8%
NC(=O)c1ccc(N(C(N)=O)c2c(F)cccc2F)nc1-c1ccc(F)cc1F + CN(c1ncccc1CNc1nc(Nc2ccc3c(c2)CC(=O)N3)ncc1C(F)(F)F)S(C)(=O)=O [PF562271] (first compound 2 µM, partner dose 0.4 µM)	83.8%
Cc1ccc(NC(=O)c2cccc(N(C)C)c2)cc1NC(=O)c1ccc(O)cc1 + Cc1cc(N2CCOCC2)cc2[nH]c(-c3c(NC[C@@H](O)c4cccc(Cl)c4)cc[nH]c3=O)nc12 [BMS536924] (first compound 10 µM, partner dose 1 µM)	90.7%
Cc1ccc(NC(=O)c2cccc(N(C)C)c2)cc1NC(=O)c1ccc(O)cc1 + Cn1cc(/C=C2\C(=O)Nc3cccnc32)c2ccccc21 [GW441756] (first compound 10 µM, partner dose 2 µM)	78.7%
CC(C)(C)c1cnc(CSc2cnc(NC(=O)C3CCNCC3)s2)o1 + OCCn1cc(-c2cnc3nnn(Cc4ccc5ncccc5c4)c3n2)cn1 [PF04217903] (first compound 0.05 µM, partner dose 5 µM)	97.4%
NC(=O)c1ccc(N(C(N)=O)c2c(F)cccc2F)nc1-c1ccc(F)cc1F + CCCCCCCCc1ccc(CCC(N)(CO)CO)cc1 [fingolimod] (first compound 2 µM, partner dose 10 µM)	0.589%
NC(=O)c1ccc(N(C(N)=O)c2c(F)cccc2F)nc1-c1ccc(F)cc1F + C[C@@H](Oc1cc(-c2cnn(C3CCNCC3)c2)cnc1N)c1c(Cl)ccc(F)c1Cl [Crizotinib] (first compound 2 µM, partner dose 1 µM)	78%
CCCCCCCCc1ccc(CCC(N)(CO)CO)cc1 [fingolimod] + C=C(c1ccc(C(=O)O)cc1)c1cc2c(cc1C)C(C)(C)CCC2(C)C [Bexarotene] (first compound 10 µM, partner dose 10 µM)	0.825%
NC(=O)c1ccc(N(C(N)=O)c2c(F)cccc2F)nc1-c1ccc(F)cc1F + O=C(O)c1ccc(-c2c[nH]c3ncc(-c4ccccc4)cc23)cc1C1CCCC1 [GSK650394] (first compound 2 µM, partner dose 0.8 µM)	70.5%
CCCCCCCCc1ccc(CCC(N)(CO)CO)cc1 [fingolimod] + CS(=O)(=O)CCNCc1ccc(-c2ccc3ncnc(Nc4ccc(OCc5cccc(F)c5)c(Cl)c4)c3c2)o1 [lapatinib] (first compound 10 µM, partner dose 4 µM)	0.11%
CC(C)(C)c1cnc(CSc2cnc(NC(=O)C3CCNCC3)s2)o1 + CN(NC(=O)CC(=O)NN(C)C(=S)c1ccccc1)C(=S)c1ccccc1 [STA4783] (first compound 0.05 µM, partner dose 0.03 µM)	37.5%
CCCCCCCCc1ccc(CCC(N)(CO)CO)cc1 [fingolimod] + COc1ccc(Cl)c(Nc2nc3ccccc3nc2NS(=O)(=O)c2cccc(NC(=O)C(C)(C)N)c2)c1 [XL147] (first compound 10 µM, partner dose 4 µM)	5.93%
CCCCCCCCc1ccc(CCC(N)(CO)CO)cc1 [fingolimod] + C[C@@H]1CCN(C(=O)CC#N)C[C@@H]1N(C)c1ncnc2[nH]ccc12 [CP690550] (first compound 10 µM, partner dose 5 µM)	0.622%
